PMC4336329 (PLoS ONE, 2015)
About 2,200 (0.71%) of roughly 310,000 compounds showed an effect of 50% or more. Effects have a minus sign here. The list shows a part of the results. Where a SMILES comes first, the peptide text is derived from it. The star is where a group is joined. Tos = Cc1ccc(S(=O)(=O)*)cc1

The compounds below were run against human ether-à-go-go-related gene (hERG) potassium channel (human, UniProt Q12809) (assay: primary screen, population patch clamp on CHO cells stably expressing hERG).
human ether-à-go-go-related gene (hERG) potassium channel, sequence (Q12809 whole entry, looked up): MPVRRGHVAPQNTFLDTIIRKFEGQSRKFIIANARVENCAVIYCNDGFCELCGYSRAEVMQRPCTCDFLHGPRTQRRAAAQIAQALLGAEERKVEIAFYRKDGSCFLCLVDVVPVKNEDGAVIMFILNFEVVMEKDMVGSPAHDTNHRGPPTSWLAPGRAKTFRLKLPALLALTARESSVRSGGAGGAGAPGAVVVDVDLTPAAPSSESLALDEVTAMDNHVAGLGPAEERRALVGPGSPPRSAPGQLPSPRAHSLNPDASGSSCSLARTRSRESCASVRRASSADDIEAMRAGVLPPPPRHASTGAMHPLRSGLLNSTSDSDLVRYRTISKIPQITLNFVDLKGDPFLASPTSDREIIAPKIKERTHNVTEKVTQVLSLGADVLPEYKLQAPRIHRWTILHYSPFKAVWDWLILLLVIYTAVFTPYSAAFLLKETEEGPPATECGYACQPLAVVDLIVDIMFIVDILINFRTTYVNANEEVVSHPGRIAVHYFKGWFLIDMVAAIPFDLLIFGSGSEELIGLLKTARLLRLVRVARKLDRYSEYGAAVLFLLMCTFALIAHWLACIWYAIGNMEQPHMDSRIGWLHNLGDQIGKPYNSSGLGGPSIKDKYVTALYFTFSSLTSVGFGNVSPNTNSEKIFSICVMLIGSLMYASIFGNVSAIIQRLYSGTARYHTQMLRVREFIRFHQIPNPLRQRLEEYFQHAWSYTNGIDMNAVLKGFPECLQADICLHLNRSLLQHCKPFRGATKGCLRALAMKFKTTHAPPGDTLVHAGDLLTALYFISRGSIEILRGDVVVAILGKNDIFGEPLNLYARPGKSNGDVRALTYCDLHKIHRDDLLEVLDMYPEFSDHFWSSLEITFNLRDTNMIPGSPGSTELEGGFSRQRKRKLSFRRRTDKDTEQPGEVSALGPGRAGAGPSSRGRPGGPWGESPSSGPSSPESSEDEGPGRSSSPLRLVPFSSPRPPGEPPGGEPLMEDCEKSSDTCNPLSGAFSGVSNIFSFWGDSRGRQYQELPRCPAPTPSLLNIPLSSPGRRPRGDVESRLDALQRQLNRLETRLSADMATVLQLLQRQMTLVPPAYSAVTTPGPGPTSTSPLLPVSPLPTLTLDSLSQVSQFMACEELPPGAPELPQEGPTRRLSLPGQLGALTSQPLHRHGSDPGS

SMILES | hERG current change (%, negative = inhibition) at 1uM
CCCCC(OC(=O)c1ccco1)C(=O)NCc1ccc(C)cc1 (centres unmarked) | 15.5%
O=S(=O)(NCc1ccco1)c1cnc(Cl)c(Cl)c1 | -1.15%
COc1ccccc1NC(=O)/C=C/c1cc([N+](=O)[O-])ccc1OC(F)F | 5.21%
CC(C)C1Nc2ccc(C(=O)NCc3ccco3)cc2NC1=O (centres unmarked) | 11.7%
Cc1c(NC(=S)NC(=O)c2cccc(Cl)c2)c(=O)n(-c2ccccc2)n1C | 15.8%
COCCCn1c(SCC(=O)Nc2ccc(C(C)=O)cc2)nc2ccccc2c1=O | -10%
COc1cccc(NC(=O)CN(c2cccc(OC)c2)S(C)(=O)=O)c1 | 4.73%
O=C1C=C(NC2CC2)C2(CCCCC2)O1 | 7.87%
O=C1c2ccccc2C(=O)N1Cc1nn2c(-c3ccc(Cl)cc3)nnc2s1 | 7.09%
Cc1ccc(S(=O)(=O)N[C@@H](CO)C(=O)N[C@@H](Cc2ccc(O)cc2)C(=O)O)cc1 (Tos-Ser-Tyr-OH) | 16.7%
COc1cc(-c2nnc(-c3ccccc3)o2)cc(OC)c1OC | 1.5%
COc1cccc(NS(=O)(=O)CC23CCC(CC2=O)C3(C)C)c1 (centres unmarked) | 28.2%
CC(C)c1onc(C(=O)N2CCN(C(c3ccccc3)c3ccccc3)CC2)c1[N+](=O)[O-] | 12.4%
O=C(c1ccc(N2CCCC2)c([N+](=O)[O-])c1)N1CCN(c2ccccn2)CC1 | 7.3%
Cc1nc(S(=O)(=O)c2ccc(Cl)cc2)nc2c1CCC2 | 0.296%
CN(Cc1ccccc1Br)C(=O)CSc1nnnn1C1CC1 | 2.55%
CCOC(=O)CSC1=C(C#N)C(c2ccc(C)cc2)C2=C(CCCC2=O)N1 (centres unmarked) | 7.86%
COc1ccccc1CNn1c(-c2cccc(C)c2)nc2ccccc2c1=O | 5.72%
Cc1cc(NC(=O)COc2ccc3ccccc3c2)no1 | 19.6%
CC1(C)CC(=O)C=C(NCc2cccs2)C1 | 7.23%
Cc1cc(NC(=O)c2ccccc2F)cc(C)c1OCC(=O)N1CCOCC1 | 5.54%
CCOC(=O)N1CCC(NC(=S)Nc2ccc3nc(N4CCN(CC)CC4)cc(C)c3c2)CC1 | 20.6%
CC(=O)c1c(C)[nH]c(C(=O)OCCOc2ccccc2)c1C | -11.3%

SMILES | hERG current change (%, negative = inhibition) at 1uM
CCOC(=O)Cn1c(S(=O)(=O)Cc2ccc(Cl)cc2)nc(-c2ccccc2)c1-c1ccccc1 | 6.08%
COc1ccccc1NC(=O)COc1ccc2ccccc2c1 | 7.23%
COc1ccc(NC(=O)NCc2ccncc2)c(OC)c1 | 3.9%
COc1cc2cc(CCOC(=O)CCCC(=O)O)oc(=O)c2cc1OC | 14.1%
CCn1nc(C(=O)OCC(=O)N2CC(=O)Nc3ccccc32)c2ccccc2c1=O | 10.2%
COC(=O)c1ccc(NS(=O)(=O)N(C)C)cc1 | 2.85%
Cc1ccc(-n2cnc3cc(NCc4cccs4)ccc32)cc1 | 3.57%
O=C(CN1CCN(c2ccccc2F)CC1)Nc1nnc(C(F)(F)F)s1 | 6.81%
O=C(Nc1ccccc1)C1=C[C@H](c2ccc(C(F)(F)F)cc2)C[C@H](OCCCCO)O1 | 8.94%
CC(C)Cc1nnc(NC(=O)CSc2ncn[nH]2)s1 | 9.72%
Cc1cc(=O)oc2cc(OC(C)C(=O)Nc3ccc(C(N)=O)cc3)ccc12 (centres unmarked) | 11.7%
COC(=O)Cc1csc(N)[nH+]1.[Cl-] | 20.5%
CCn1c(CNC(=O)c2cccs2)n[nH]c1=S | 6.94%
CCOC(=O)C1(Cc2cccc(Cl)c2)CCCN(C(=O)c2cn[nH]c2)C1 (centres unmarked) | 6.11%
O=C(c1ccccc1)C1C(=O)c2ccccc2C1=O | 7.46%
COC(=O)c1sc(-c2ccc(Cl)cc2)cc1NC(=O)COCC(=O)O | 9.66%
O=C(CSc1nnnn1-c1ccccc1)N1N=CCC1c1ccccc1 (centres unmarked) | -1.08%
COc1ccc2c(c1)CCc1c(C(=O)N3CCc4ccccc4C3)noc1-2 | 0.367%
COC(=O)C1=C(c2ccc(-c3ccccc3)c(F)c2)C[C@@H]2CC[C@H]1N2C(=O)NCCNC(C)=O | 9.6%
O=C(C1CCC1)N1CCc2cc(S(=O)(=O)NCc3ccco3)ccc21 | 7.44%
O=S(=O)(NC1=NCCC1)c1cccc(NS(=O)(=O)c2ccc(F)c(Cl)c2)c1 | 3.53%
Cc1cccc(NC(=O)Cn2cnc3sc(C)c(S(=O)(=O)N4CCC(C)CC4)c3c2=O)n1 | 4.71%
Cc1ccsc1C(=O)C1CCCN(Cc2ccn[nH]2)C1 (centres unmarked) | 9.05%

SMILES | hERG current change (%, negative = inhibition) at 1uM
CCOc1ccc(NS(=O)(=O)c2ccc(C(=O)NCCN3CCOCC3)cc2)cc1 | -0.0798%
Cc1ccc(S(=O)(=O)Nc2ccc(N3CCN(C)CC3)nc2)cc1 | 6.01%
CC1(C)C(=O)C=C[C@]2(C)[C@H]3CC[C@@]4(C)[C@H](c5ccoc5)OC(=O)[C@H]5O[C@]54[C@]3(C)[C@H](O)C[C@@H]12 | 20.5%
O=C(NCC1COc2ccccc2O1)c1cccc(S(=O)(=O)NCc2ccccc2)c1 (centres unmarked) | 7.26%
Cc1cc(C(=O)Nc2nnc(C3CCCCC3)s2)no1 | -9.16%
COc1ccc(C(C(=O)NCCC(C)C)N(CCO)C(=O)c2snc(C(N)=O)c2N)cc1OC (centres unmarked) | 10.6%
CCC(C)[C@H](NC(=O)NCc1ccco1)C(=O)O (some centres unmarked) | 20%
Cc1cc(C)n2nc(SCC(=O)N/N=C/c3ccccn3)nc2n1 | 7.69%
Cc1cc([N+](=O)[O-])nn1CC(=O)NCCCn1ccnc1 | 5.44%
S=c1[nH]nc(-c2cccnc2)n1/N=C/C=C/c1ccccc1 | 16.3%
Clc1ccc(-c2cc3ccccc3nc2N2CCOCC2)cc1 | 14.5%
CCC(=O)Nc1cccc(-c2cnc3ccccc3n2)c1 | -1.64%
O=C(Cn1cc2c(n1)CCCCC2)NCCN1CCOCC1 | 7.8%
CCCN1C(=O)C(O)(C2CC(=O)CC(C)(C)O2)c2ccccc21 (centres unmarked) | 2.89%
COC(=O)Cc1ccc(NC(=S)NCc2ccc(F)cc2)cc1 | -19.8%
S=C(c1ccc(-c2ccccc2Cl)o1)N1CCOCC1 | 11.8%
CC1CC(C)CN(CCCOc2ccccc2[N+](=O)[O-])C1.O=C(O)C(=O)O (centres unmarked) | 5.91%
Cc1c(C(=O)NCc2ccc3c(c2)OCO3)oc2ccc(S(=O)(=O)N3CCCC3)cc12 | 19.4%
O=C1C2CCCN2C(=O)N1CCN1CCN(c2ccccc2)CC1 (centres unmarked) | -10.6%
COc1ccccc1CNC(=O)COC(=O)c1ccc(-n2cnnn2)cc1 | -2.42%
COc1ccc(OCC(=O)N(Cc2ccco2)C2CCS(=O)(=O)C2)cc1 (centres unmarked) | 3.06%
Cc1ccc(OCc2nc3ccccc3n2C)cc1 | 2.93%
CCOC(=O)C1=C(C)NC(C)=C(C(=O)OCC)C1C(=O)OCC(=O)N1CCCCC1C (centres unmarked) | 10.5%

SMILES | hERG current change (%, negative = inhibition) at 1uM
NC(=O)NC(=O)C[n+]1cccc(/C=N/O)c1.[Cl-] | 9.69%
C=CCn1c(=N)c(C(=O)NCCCOC)cc2c(=O)n3cccc(C)c3nc21 | -64.2%
CCc1nn(CC(=O)NCCCN2CCc3ccccc3C2)c(=O)c2cc3sccc3n12 | -53.8%
COCCCN(C(C)=O)c1nc(-c2ccccc2)cs1 | -7.48%
Cc1c(NC(=O)C2CCN(S(=O)(=O)c3cccs3)CC2)c(=O)n(-c2ccccc2)n1C | 15.7%
COc1cccc(C(=O)O/N=C(\N)c2ccc(C)cc2)c1 | -8.69%
Cc1ccc(C)c(NC(=O)CCN2CC(C)OC(C)C2)c1 (centres unmarked) | 3.16%
CC(=O)N1N=C(N)SC1(C)C | 9.04%
CCn1c(SCc2nc3cc(OC)c(OC)cc3c(=O)[nH]2)nnc1-c1ccncc1 | -1.74%
COCCNC(=O)c1c(N)sc2c1CCCC2 | -2.01%
c1ccc(-n2ncc3c(NCC4CCCO4)ncnc32)cc1 (centres unmarked) | -0.84%
Cc1ccc(C2(c3noc(CN(C)Cc4cccnc4)n3)CCCC2)cc1 | -16.5%
C=CC1=C2C=C(C3CC3)N(C3CC3)C=C2C(=O)C(C)(OC(=O)c2ccco2)C1=O (centres unmarked) | 12%
NC(=O)NC(=O)CC1S/C(=N/N=C/c2ccccc2)NC1=O (centres unmarked) | 13.7%
Cc1ccc(NC(=O)Cn2c(=O)n(CCC(=O)NC3CCN(Cc4ccccc4)CC3)c(=O)c3ccccc32)cc1 | 2.78%
COc1ccc(/C=N/NC(=O)c2cc3c(OC)ccc(OC)c3[nH]2)cc1O | 14.6%
CCc1ccc(NC(=O)c2ccc3c(=O)n4c(nc3c2)CCCCC4)cc1 | 3.08%
CCc1ccc(Nc2nnc(SCC(=O)N(C)CC(=O)Nc3ccccc3CC)s2)cc1 | 1.22%
CC(C)(C)NC(=O)CN(C(=O)CCN1CCCc2ccccc21)C(C)(C)C | 4.15%
CCCOc1nc2c(c(=O)n(C)c(=O)n2C)n1Cc1cccc2ccccc12 | 10.1%
